# This is one part of the list.
# B1: Als3-2 (Candida albicans) (protein)
# chain: KTITGVFNSFNSLTWSNAATYNYKGPGTPTWNAVLGWSLDGTSASPGDTFTLNMPCVFKFTTSQTSVDLTAHGVKYATCQFQAGEEFMTFSTLTCTVSNTLTPSIKALGTVTLPLAFNVGGTGSSVDLEDSKCFTAGTNTVTFNDGGKKISINVDFERSNVDPKGYLTD
# Experiments:
# Assay in all cases: glycan array binding signal (z-score within array); higher = stronger binding
# Conditions in all cases: glycan notation: IUPAC condensed, linker removed
# [1] = biological target: Gal(b1-3)GlcNAc(b1-2)Man(a1-3)[Gal(b1-3)GlcNAc(b1-2)Man(a1-6)]Man(b1-4)GlcNAc(b1-4)[Fuc(a1-6)]GlcNAc
# In short: (§1)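 Columns mapping to the same glycan were averaged after glycan names were converted to IUPAC-condensed notation. The data come from 3228 arrays in the Consortium for Functional Glycomics database, limited to those with an available protein sequence. Binding is reported as a within-array Z-score averaged across arrays of one protein sequence and across linkers.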
# [2] = biological target: Gal(b1-3)GlcNAc(b1-2)Man(a1-3)[GlcNAc(b1-4)][Gal(b1-3)GlcNAc(b1-2)Man(a1-6)]Man(b1-4)GlcNAc(b1-4)GlcNAc
# In short: as §1
# [3] = biological target: Gal(b1-3)GlcNAc(b1-2)[Gal(b1-3)GlcNAc(b1-6)]Man(a1-6)[Gal(b1-3)GlcNAc(b1-2)Man(a1-3)]Man(b1-4)GlcNAc(b1-4)GlcNAc
# In short: as §1
# [4] = biological target: Gal(b1-3)GlcNAc(b1-3)Gal(b1-3)GlcNAc
# In short: as §1
# [5] = biological target: Gal(b1-3)GlcNAc(b1-3)Gal(b1-4)Glc
# In short: as §1
# [6] = biological target: Gal(b1-3)GlcNAc(b1-3)Gal(b1-4)GlcNAc
# In short: as §1
# [7] = biological target: Gal(b1-3)GlcNAc(b1-3)Gal(b1-4)GlcNAc(b1-2)Man(a1-3)[Gal(b1-3)GlcNAc(b1-3)Gal(b1-4)GlcNAc(b1-2)Man(a1-6)]Man(b1-4)GlcNAc(b1-4)GlcNAc
# In short: as §1
# [8] = biological target: Gal(b1-3)GlcNAc(b1-3)Gal(b1-4)GlcNAc(b1-2)[Gal(b1-3)GlcNAc(b1-3)Gal(b1-4)GlcNAc(b1-6)]Man(a1-6)[Gal(b1-3)GlcNAc(b1-3)Gal(b1-4)GlcNAc(b1-2)Man(a1-3)]Man(b1-4)GlcNAc(b1-4)[Fuc(a1-6)]GlcNAc
# In short: as §1
# [9] = biological target: Gal(b1-3)GlcNAc(b1-3)Gal(b1-4)GlcNAc(b1-3)Gal(b1-4)GlcNAc(b1-2)[Gal(b1-3)GlcNAc(b1-3)Gal(b1-4)GlcNAc(b1-3)Gal(b1-4)GlcNAc(b1-6)]Man(a1-6)[Gal(b1-3)GlcNAc(b1-3)Gal(b1-4)GlcNAc(b1-3)Gal(b1-4)GlcNAc(b1-2)Man(a1-3)]Man(b1-4)GlcNAc(b1-4)[Fuc(a1-6)]GlcNAc
# In short: as §1
# [10] = biological target: Gal(b1-3)GlcNAc(b1-3)Gal(b1-4)GlcNAc(b1-6)[Gal(b1-3)GlcNAc(b1-3)]Gal(b1-4)Glc
# In short: as §1
# [11] = biological target: Gal(b1-3)GlcNAc(b1-3)Gal(b1-4)[Fuc(a1-3)]GlcNAc
# In short: as §1
# [12] = biological target: Gal(b1-3)GlcNAc(b1-3)Gal(b1-4)[Fuc(a1-3)]GlcNAc(b1-6)[Gal(b1-3)GlcNAc(b1-3)]Gal(b1-4)Glc
# In short: as §1
# [13] = biological target: Gal(b1-3)GlcNAc(b1-3)GalNAc
# In short: as §1
# [14] = biological target: Gal(b1-3)GlcNAc(b1-6)Gal(b1-4)GlcNAc
# In short: as §1
# [15] = biological target: Gal(b1-3)GlcNAc(b1-6)GalNAc
# In short: as §1
# [16] = biological target: Gal(b1-3)GlcNAc(b1-6)[Gal(b1-3)]GalNAc
# In short: as §1
# Gal(b1-3)GlcNAc6S = biological target: Gal(b1-3)GlcNAc6S
# In short: as §1
# [17] = biological target: Gal(b1-3)[Fuc(a1-4)]GlcNAc
# In short: as §1
# [18] = biological target: Gal(b1-3)[Fuc(a1-4)]GlcNAc(b1-2)Man
# In short: as §1
# [19] = biological target: Gal(b1-3)[Fuc(a1-4)]GlcNAc(b1-2)Man(a1-3)[Gal(b1-3)[Fuc(a1-4)]GlcNAc(b1-2)Man(a1-6)]Man(b1-4)GlcNAc(b1-4)[Fuc(a1-6)]GlcNAc
# In short: as §1
# [20] = biological target: Gal(b1-3)[Fuc(a1-4)]GlcNAc(b1-3)Gal(b1-3)[Fuc(a1-4)]GlcNAc
# In short: as §1
# [21] = biological target: Gal(b1-3)[Fuc(a1-4)]GlcNAc(b1-3)Gal(b1-4)[Fuc(a1-3)]GlcNAc
# In short: as §1
# [22] = biological target: Gal(b1-3)[Fuc(a1-4)]GlcNAc(b1-6)GalNAc
# In short: as §1
# [23] = biological target: Gal(b1-3)[GlcNAc(b1-6)]GalNAc
# In short: as §1
# [24] = biological target: Gal(b1-3)[Neu5Ac(a2-6)]GalNAc
# In short: as §1
# [25] = biological target: Gal(b1-3)[Neu5Ac(a2-6)]GlcNAc(b1-4)Gal(b1-4)Glc
# In short: as §1
# [26] = biological target: Gal(b1-3)[Neu5Ac(b2-6)]GalNAc
# In short: as §1
# Gal(b1-4)Gal = biological target: Gal(b1-4)Gal
# In short: as §1
# [27] = biological target: Gal(b1-4)GalNAc(a1-3)[Fuc(a1-2)]Gal(b1-4)GlcNAc
# In short: as §1
# [28] = biological target: Gal(b1-4)GalNAc(b1-3)[Fuc(a1-2)]Gal(b1-4)GlcNAc
# In short: as §1
# Gal(b1-4)Glc = biological target: Gal(b1-4)Glc
# In short: as §1
# Gal(b1-4)Glc6S = biological target: Gal(b1-4)Glc6S
# In short: as §1
# Gal(b1-4)GlcNAc = biological target: Gal(b1-4)GlcNAc
# In short: as §1
# [29] = biological target: Gal(b1-4)GlcNAc(a1-6)Gal(b1-4)GlcNAc
# In short: as §1
# Gal(b1-4)GlcNAc(b1-2)Man = biological target: Gal(b1-4)GlcNAc(b1-2)Man
# In short: as §1
# [30] = biological target: Gal(b1-4)GlcNAc(b1-2)Man(a1-3)Man(b1-4)GlcNAc(b1-4)GlcNAc
# In short: as §1
# [31] = biological target: Gal(b1-4)GlcNAc(b1-2)Man(a1-3)[Gal(b1-4)GlcNAc(b1-2)Man(a1-6)]Man(b1-4)GlcNAc(b1-4)GlcNAc
# In short: as §1
# [32] = biological target: Gal(b1-4)GlcNAc(b1-2)Man(a1-3)[Gal(b1-4)GlcNAc(b1-2)Man(a1-6)]Man(b1-4)GlcNAc(b1-4)[Fuc(a1-6)]GlcNAc
# In short: as §1
# [33] = biological target: Gal(b1-4)GlcNAc(b1-2)Man(a1-3)[Gal(b1-4)GlcNAc(b1-2)Man(a1-6)][Gal(b1-4)GlcNAc(b1-4)]Man(b1-4)GlcNAc(b1-4)[Fuc(a1-6)]GlcNAc
# In short: as §1
# [34] = biological target: Gal(b1-4)GlcNAc(b1-2)Man(a1-3)[Gal(b1-4)GlcNAc(b1-2)Man(a1-6)][GlcNAc(b1-4)]Man(b1-4)GlcNAc(b1-4)[Fuc(a1-6)]GlcNAc
# In short: as §1
# [35] = biological target: Gal(b1-4)GlcNAc(b1-2)Man(a1-3)[GlcNAc(b1-2)Man(a1-6)]Man(b1-4)GlcNAc(b1-4)GlcNAc
# In short: as §1
# [36] = biological target: Gal(b1-4)GlcNAc(b1-2)Man(a1-3)[GlcNAc(b1-4)][Gal(b1-4)GlcNAc(b1-2)Man(a1-6)]Man(b1-4)GlcNAc(b1-4)GlcNAc
# In short: as §1
# [37] = biological target: Gal(b1-4)GlcNAc(b1-2)Man(a1-3)[Man(a1-6)]Man(b1-4)GlcNAc(b1-4)GlcNAc
# In short: as §1
# [38] = biological target: Gal(b1-4)GlcNAc(b1-2)Man(a1-6)Man(b1-4)GlcNAc(b1-4)GlcNAc
# In short: as §1
# [39] = biological target: Gal(b1-4)GlcNAc(b1-2)Man(a1-6)[GlcNAc(b1-2)Man(a1-3)]Man(b1-4)GlcNAc(b1-4)GlcNAc
# In short: as §1
binder,measurement,setting,value
B1,glycan array binding signal (z-score),[1],-0.624
same,glycan array binding signal (z-score),[2],-0.229
same,glycan array binding signal (z-score),[3],-0.228
same,glycan array binding signal (z-score),[4],0
same,glycan array binding signal (z-score),[5],-0.704
same,glycan array binding signal (z-score),[6],0.185
same,glycan array binding signal (z-score),[7],2.3
same,glycan array binding signal (z-score),[8],0.446
same,glycan array binding signal (z-score),[9],2.57
same,glycan array binding signal (z-score),[10],-0.603
same,glycan array binding signal (z-score),[11],-0.641
same,glycan array binding signal (z-score),[12],-0.615
same,glycan array binding signal (z-score),[13],-0.587
same,glycan array binding signal (z-score),[14],-0.517
same,glycan array binding signal (z-score),[15],-0.468
same,glycan array binding signal (z-score),[16],-0.733
same,glycan array binding signal (z-score),Gal(b1-3)GlcNAc6S,-0.565
same,glycan array binding signal (z-score),[17],-0.504
same,glycan array binding signal (z-score),[18],-0.005
same,glycan array binding signal (z-score),[19],-0.583
same,glycan array binding signal (z-score),[20],-0.17
same,glycan array binding signal (z-score),[21],-0.461
same,glycan array binding signal (z-score),[22],-0.288
same,glycan array binding signal (z-score),[23],-0.513
same,glycan array binding signal (z-score),[24],-0.477
same,glycan array binding signal (z-score),[25],-0.325
same,glycan array binding signal (z-score),[26],-0.556
same,glycan array binding signal (z-score),Gal(b1-4)Gal,-0.552
same,glycan array binding signal (z-score),[27],-0.61
same,glycan array binding signal (z-score),[28],-0.72
same,glycan array binding signal (z-score),Gal(b1-4)Glc,-0.62
same,glycan array binding signal (z-score),Gal(b1-4)Glc6S,-0.361
same,glycan array binding signal (z-score),Gal(b1-4)GlcNAc,-0.315
same,glycan array binding signal (z-score),[29],0.563
same,glycan array binding signal (z-score),Gal(b1-4)GlcNAc(b1-2)Man,0.441
same,glycan array binding signal (z-score),[30],-0.17
same,glycan array binding signal (z-score),[31],-0.319
same,glycan array binding signal (z-score),[32],-0.135
same,glycan array binding signal (z-score),[33],0.231
same,glycan array binding signal (z-score),[34],1.26
same,glycan array binding signal (z-score),[35],-0.106
same,glycan array binding signal (z-score),[36],1.3
same,glycan array binding signal (z-score),[37],0.449
same,glycan array binding signal (z-score),[38],0.929
same,glycan array binding signal (z-score),[39],-0.3
